Laboratory results taken from paper PMC9763856.
No constants are given. Whether binding was seen depends on the method and setting. Binding seen in cells or lysates may run through a third protein. Some results given as binding are weak or reduced against the parent protein; the word gives no strength. For part of these data: Sequences can lack the tags named with a protein. Blank lines part the entries; values can stand above or below the molecule they belong to.

Amino acid sequences for entries named in this document (tags omitted). A change or cut given only in a name is not applied to a line headed by its entry. Residues count along the entry.
UniProt P70340: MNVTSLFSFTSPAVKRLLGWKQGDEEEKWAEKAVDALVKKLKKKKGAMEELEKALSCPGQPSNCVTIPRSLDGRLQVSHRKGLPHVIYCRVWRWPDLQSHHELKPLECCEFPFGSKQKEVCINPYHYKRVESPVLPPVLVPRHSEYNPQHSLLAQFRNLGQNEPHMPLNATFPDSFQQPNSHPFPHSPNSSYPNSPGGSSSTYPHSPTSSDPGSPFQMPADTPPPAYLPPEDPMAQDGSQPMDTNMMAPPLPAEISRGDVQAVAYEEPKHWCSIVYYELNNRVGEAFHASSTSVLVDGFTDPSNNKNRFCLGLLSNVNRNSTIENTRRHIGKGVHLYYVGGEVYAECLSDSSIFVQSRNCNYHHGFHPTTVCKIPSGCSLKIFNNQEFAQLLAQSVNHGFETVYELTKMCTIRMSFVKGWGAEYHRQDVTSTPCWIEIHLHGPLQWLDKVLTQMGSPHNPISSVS
UniProt Q15797: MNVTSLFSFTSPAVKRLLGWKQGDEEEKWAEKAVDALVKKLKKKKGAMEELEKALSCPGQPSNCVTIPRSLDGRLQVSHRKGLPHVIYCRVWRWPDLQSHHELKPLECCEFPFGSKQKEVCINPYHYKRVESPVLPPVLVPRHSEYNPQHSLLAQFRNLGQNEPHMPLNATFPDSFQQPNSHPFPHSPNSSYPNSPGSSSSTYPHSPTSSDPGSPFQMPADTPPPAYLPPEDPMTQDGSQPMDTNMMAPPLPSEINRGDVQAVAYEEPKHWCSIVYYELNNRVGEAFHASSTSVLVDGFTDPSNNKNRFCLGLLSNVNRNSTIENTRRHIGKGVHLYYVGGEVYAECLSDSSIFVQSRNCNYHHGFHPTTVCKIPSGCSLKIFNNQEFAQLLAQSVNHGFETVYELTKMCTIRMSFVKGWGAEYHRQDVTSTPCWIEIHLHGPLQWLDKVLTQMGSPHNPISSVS
GST-SMAD1 MH1 domain: residues 12-136 of Q15797
GST-SMAD1 MH2 domain: residues 271-465 of Q15797
UniProt Q9HCE7: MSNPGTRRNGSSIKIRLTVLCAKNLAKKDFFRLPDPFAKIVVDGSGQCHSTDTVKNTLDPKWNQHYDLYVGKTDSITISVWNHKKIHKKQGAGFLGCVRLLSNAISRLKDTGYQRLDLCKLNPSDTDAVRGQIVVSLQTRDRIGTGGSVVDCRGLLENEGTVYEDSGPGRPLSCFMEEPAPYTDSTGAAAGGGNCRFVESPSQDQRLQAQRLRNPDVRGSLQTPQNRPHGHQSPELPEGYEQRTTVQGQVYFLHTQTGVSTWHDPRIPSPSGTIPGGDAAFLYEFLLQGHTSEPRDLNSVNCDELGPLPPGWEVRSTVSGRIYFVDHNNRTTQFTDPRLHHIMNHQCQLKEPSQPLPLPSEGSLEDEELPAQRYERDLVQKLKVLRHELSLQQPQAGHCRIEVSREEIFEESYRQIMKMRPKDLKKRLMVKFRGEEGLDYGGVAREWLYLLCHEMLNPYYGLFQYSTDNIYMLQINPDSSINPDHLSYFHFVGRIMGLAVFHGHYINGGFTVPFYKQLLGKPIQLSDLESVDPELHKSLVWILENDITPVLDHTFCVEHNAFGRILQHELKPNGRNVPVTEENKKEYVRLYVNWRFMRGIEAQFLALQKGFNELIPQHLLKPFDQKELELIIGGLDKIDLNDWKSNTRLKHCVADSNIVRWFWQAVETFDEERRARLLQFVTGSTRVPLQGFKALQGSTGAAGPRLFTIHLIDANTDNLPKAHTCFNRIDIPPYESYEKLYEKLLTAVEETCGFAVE
UniProt Q9CUN6: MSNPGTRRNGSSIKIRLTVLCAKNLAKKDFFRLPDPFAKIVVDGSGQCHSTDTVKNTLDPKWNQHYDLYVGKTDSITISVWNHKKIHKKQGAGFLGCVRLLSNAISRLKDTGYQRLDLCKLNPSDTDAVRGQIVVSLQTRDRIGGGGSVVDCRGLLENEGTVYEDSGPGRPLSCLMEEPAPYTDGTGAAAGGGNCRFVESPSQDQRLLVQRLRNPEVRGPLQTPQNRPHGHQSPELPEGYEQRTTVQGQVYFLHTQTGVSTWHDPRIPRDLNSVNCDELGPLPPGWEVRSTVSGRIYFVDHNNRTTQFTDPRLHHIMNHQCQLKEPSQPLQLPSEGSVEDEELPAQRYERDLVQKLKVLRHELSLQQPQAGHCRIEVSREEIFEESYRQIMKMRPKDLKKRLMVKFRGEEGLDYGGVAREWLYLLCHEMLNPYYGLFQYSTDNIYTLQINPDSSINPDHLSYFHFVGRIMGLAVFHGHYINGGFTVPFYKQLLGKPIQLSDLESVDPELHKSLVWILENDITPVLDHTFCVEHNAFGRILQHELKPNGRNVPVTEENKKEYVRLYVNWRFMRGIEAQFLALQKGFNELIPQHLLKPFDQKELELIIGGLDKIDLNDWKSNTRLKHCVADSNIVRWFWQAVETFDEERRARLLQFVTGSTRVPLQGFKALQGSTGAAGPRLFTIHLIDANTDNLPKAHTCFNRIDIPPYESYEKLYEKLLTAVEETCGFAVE

What was measured:
[1] = target: T1, Flag-tagged TAPT1 (human Transmembrane anterior posterior transformation 1) (human) (UniProt Q6NXT6); assay: co-IP; HEK293T cells transfected with Flag-tagged TAPT1; Flag immunoprecipitates blotted for endogenous proteins
T1 sequence: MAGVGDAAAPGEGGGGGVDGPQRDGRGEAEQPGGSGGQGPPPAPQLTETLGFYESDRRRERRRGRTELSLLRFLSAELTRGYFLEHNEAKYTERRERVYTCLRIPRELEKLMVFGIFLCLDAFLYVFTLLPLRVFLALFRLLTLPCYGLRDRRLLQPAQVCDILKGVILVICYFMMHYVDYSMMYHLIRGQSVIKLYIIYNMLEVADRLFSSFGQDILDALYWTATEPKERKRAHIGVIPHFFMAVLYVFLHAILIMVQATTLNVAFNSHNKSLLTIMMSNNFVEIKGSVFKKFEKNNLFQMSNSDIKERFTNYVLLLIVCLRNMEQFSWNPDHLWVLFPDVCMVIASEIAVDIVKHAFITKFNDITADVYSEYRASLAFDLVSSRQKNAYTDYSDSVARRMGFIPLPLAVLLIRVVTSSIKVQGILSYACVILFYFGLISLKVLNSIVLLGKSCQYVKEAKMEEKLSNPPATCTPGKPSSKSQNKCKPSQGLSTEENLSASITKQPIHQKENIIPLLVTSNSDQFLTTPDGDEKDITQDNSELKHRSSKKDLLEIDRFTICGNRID

[2] = target: endogenous SMAD1 in C2C12 cells (mouse (endogenous in C2C12)) (UniProt P70340); assay: co-IP; endogenous proteins in whole C2C12 lysates (IP lysis buffer: 50 mM Tris pH 7.5, 150 mM NaCl, 1 mM EDTA, 10% glycerol, 1% Triton X-100), protein A/G agarose; anti-SMAD1 antibody for immunoprecipitation (Fig. 3H, 5J); cells with or without 100 ng/ml BMP2 for 1 h; WT or Tapt1+/- cells
[3] = target: T2, exogenous TAPT1 of the two-step IP (human) (UniProt Q6NXT6); assay: co-IP; two-step IP from HEK293T cells transfected with SMAD1, SMURF1-CA and TAPT1: anti-Flag IP, elution with Flag peptides, then anti-HA IP, Western blot
T2 sequence: T1 sequence

[4] = target: endogenous SMAD1 in HEK293T cells (human (endogenous in HEK293T)) (UniProt Q15797); assay: co-IP; endogenous SMAD1 immunoprecipitated from HEK293T cells, control or transfected with Flag-TAPT1 at various doses; blotted for endogenous SMURF1 and Flag-TAPT1
[5] = target: GST-tagged SMAD1 (UniProt Q15797); assay: pull-down; GST fusion proteins expressed by bacteria incubated with lysates of HEK293T cells transfected with Flag-TAPT1; only the target purified
[6] = target: GST-SMURF1 (UniProt Q9HCE7); assay: as above
[7] = target: GST-SMAD1 MH2 domain (UniProt Q15797); assay: as above
[8] = target: GST-SMAD1 MH1 domain (UniProt Q15797); assay: as above
[9] = target: Flag-SMAD1 (UniProt Q15797); assay: co-IP; HEK293T cells transfected with Flag-SMAD1 or Flag-SMAD1-SM; lysates immunoprecipitated and blotted for SMURF1 and TAPT1
[10] = target: endogenous SMAD1 in C2C12 cells (mouse (endogenous in C2C12)) (UniProt P70340); assay: co-IP; separated cytoplasmic and nuclear fractions of C2C12 cells with or without BMP2, immunoprecipitated with an anti-SMAD1 antibody
[11] = target: endogenous SMAD1 in C2C12 cells (mouse (endogenous in C2C12)) (UniProt P70340); assay: co-IP; endogenous proteins in whole C2C12 lysates (IP lysis buffer: 50 mM Tris pH 7.5, 150 mM NaCl, 1 mM EDTA, 10% glycerol, 1% Triton X-100), protein A/G agarose; anti-SMAD1 antibody for immunoprecipitation (Fig. 3H, 5J); cells with or without 100 ng/ml BMP2 for 1 h; WT or Tapt1+/- cells; remark: listed apart in the source

binding [1]: binds
Molecule: endogenous SMAD1 in HEK293T cells (from UniProt Q15797 1-465)

binding [1]: binds
Molecule: endogenous SMURF1 (SMAD ubiquitin regulatory factor 1) in HEK293T cells (from UniProt Q9HCE7 1-757) (enzyme)

binding [9]: binds
B2: TAPT1 in HEK293T cells transfected with Flag-SMAD1 or Flag-SMAD1-SM (protein, UniProt Q6NXT6 1-567)
chain: T1 sequence

binding [10]: binds | binding [11]: binds
B3: endogenous TAPT1 in C2C12 cells (protein, UniProt Q4VBD2 1-564)
chain: MAGVCDAAAPGEGGGGGADGPERTGRGEAEQPGGGGHGPAPQHTETLGFYESDRRREKRRGRAELSLLRFLSAELTRGYFLEHNEAKYTERRERVYTCMRIPRELEKLMFFGIFLCLDAFLYVFTLLPLRVFLALFRLLTLPCYGLRDRRLLQPAQVCDILKGVILVICYFMMHYVDYSMMYHLIRGQSVIKLYIIYNMLEVADRLFSSFGQDILDALYWTATEPKERKRAHIGVIPHFFMAVLYVFLHAILIMVQATTLNVAFNSHNKSLLTIMMSNNFVEIKGSVFKKFEKNNLFQMSNSDIKERFTNYVLLLIVCLRNMEQFSWNPDHLWVLFPDVCMVIASEIAVDIVKHAFITKFNDITADVYSEYRASLAFDLVSSRQKNAYTDYSDSVARRMGFIPLPLAVLLIRVVTSSIKVQGILSYACVILFYFGLISLKILNSIVLLGKSCQYVKEAKMEEKLFNPPPASTPGKPSSKSQSKGKPSQGLSTEENLSASVTSQPGHQKENVIPLLVTSNSDQFLTTPDGDEKDITQENSELKHRSSKKDLLEIDRFTICGNRID

The next lines start with the molecule.

Molecule: endogenous SMURF1 in C2C12 cells (from UniProt Q9CUN6 1-731) (enzyme)
binding [2]: binds

Molecule: exogenous SMAD1 of the two-step IP (from UniProt Q15797 1-465)
binding [3]: binds

B1: Flag-tagged TAPT1 (human Transmembrane anterior posterior transformation 1) (protein, UniProt Q6NXT6 1-567)
chain: T1 sequence
binding [4]: binds | binding [5]: binds | binding [6]: binds | binding [7]: no binding | binding [8]: binds
